Data published in PubChem BioAssay AID485297 (National Center for Advancing Translational Sciences (NCATS), 2010).
The whole screen tested about 320,000 compounds, of which about 9,100 (2.8%) were called active. The inconclusive results got no clear call from the source; some entries with a clear call stand among them for comparison. The call rests on the fitted dose curve; in most records, active means well fitted activation curve with a large enough effect; inconclusive means small, poorly fitted or top-dose-only effect; inactive means no such curve, though single readings can be large or run the other way. No potency is given beside an inconclusive call; the fits are too rough.

Assay: qHTS Assay for Rab9 Promoter Activators; further: nearly all actives have a fitted effect of over 60% in size; on activation, negative = inhibition: % of control where 0% means no effect
Conditions: Huh7 Rab9 promoter-luciferase reporter, luminescence, 24 h; series mostly up to 9.22 µM; activation, negative = inhibition: at the top concentration
In short: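 Steps: seed 1500 Huh7 Rab9-luc cells per well, rest 2 h at 37 °C; add compound in DMSO; incubate 24 h; add luciferase reagent, 10 min ambient; read luminescence.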
Potency means the concentration at half of the fitted maximal effect; tags describe the fitted curve by direction and shape.

Row | SMILES | Potency | activation, negative = inhibition
1 | S=c1nc(-c2ccc(Br)cc2)oc2c1CCCC2 | inconclusive [activator, partial curve] | –
2 | Cc1ccc(NC(=O)Nc2ccc([N+](=O)[O-])cc2)nc1 | inconclusive [activator, single point] | –
3 | CC1CCC(N(CCCN)Cc2ccco2)CC1C (stereo unspecified) | – | inactive: -6.99%
4 | O=C(Nc1nc2ccccc2s1)c1ccccc1 | active: 0.447 µM | –
5 | O=S(=O)(Nc1cc(Cl)ccc1-n1cncn1)c1cc(Br)ccc1Br | – | inactive: -16.6%
6 | O=C1N(Cc2ccc(F)cc2)CCN1c1ccc(F)cc1 | inconclusive [activator, partial curve] | –
7 | Cc1ccc(COn2c(-c3ccc(Cl)cc3)nc3ccc([N+](=O)[O-])cc32)cc1 | inconclusive [activator, partial curve] | –
8 | Cc1c(C(=O)Nc2ccc(Br)cc2)cnn1C | inconclusive [activator, single point] | –
9 | CCC(C)[C@H](NC(=O)NC1CCCc2ccccc21)C(=O)O (stereo partly specified) | – | inactive: -0.402%
10 | O=C(NC(=S)Nc1ccc(N2CCOCC2)cc1)c1ccccc1 | inconclusive [activator, partial curve] | –
11 | COc1ccc(Nc2nc(C)cc(C)n2)cc1Cl | inconclusive [activator, single point] | –
12 | O=C(CSc1nc2ccc(Cl)cc2o1)NCc1ccc2c(c1)OCO2 | – | inactive: 0.739%
13 | N#C/C(=N\Nc1ccccc1F)C(=N)N1CCCCC1 | active: 1.58 µM | –
14 | Cc1cccc(Nc2nc(N)nc(-c3oc4ccccc4c3C)n2)c1 | inconclusive [activator, single point] | –
15 | CCOC(=O)N1CCC(NC(=O)c2ccc3c(c2)ncn3C2CCCC2)CC1 | inconclusive [activator, partial curve] | –
16 | O=c1ccc(-c2ccc(S(=O)(=O)N3CCN(c4cccc(Cl)c4)CC3)o2)n[nH]1 | – | inactive: 2.11%
17 | COc1ccc2c(Cl)c(C(=O)NCc3ccco3)sc2c1 | active: 3.16 µM | –
18 | CC1CC(=O)c2cnc(Nc3cccc(C(F)(F)F)c3)nc2C1 (stereo unspecified) | inconclusive [activator, single point] | –
19 | O=C(COC(=O)c1ccc(-c2cnc3ccccc3n2)cc1)c1ccccc1 | inconclusive [activator, single point] | –
20 | CCC(=O)N(C1=C(NC(C)C)C(=O)c2ccccc2C1=O)C(C)C | – | inactive: -4.84%
21 | CCCCC(=O)Nc1ccc2c(c1)nc1n2CCOC1 | inconclusive [activator, partial curve] | –
22 | Cc1scc(C(=O)N/N=C/c2ccc(OC(C)C)cc2)c1C | inconclusive [activator, partial curve] | –
23 | COc1cc(/C=N/Nc2ccccc2C(F)(F)F)ccc1O | inconclusive [activator, single point] | –
24 | COc1c(OC(C)=O)ccc(/C=C/c2ccc3cccc(OCc4ccccc4)c3n2)c1[N+](=O)[O-] | inconclusive [activator, single point] | –
25 | CCOC(=O)c1ccc(NC(=O)c2cc3ccccc3o2)cc1 | inconclusive [activator, partial curve] | –
26 | COc1ccc(N(C)S(=O)(=O)c2ccc(Cl)c(C(=O)NNC(=O)c3ccccc3O)c2)cc1 | – | inactive: -0.336%

Row | SMILES | Potency | activation, negative = inhibition
27 | c1ccn(-c2ccc(N3CCOCC3)cc2)c1 | inconclusive [activator, partial curve] | –
28 | CCOC(=O)C1(Cc2cccc(OC)c2)CCCN(C(=O)c2cc(C)oc2C)C1 (stereo unspecified) | inconclusive [activator, partial curve] | –
29 | c1ccc(CSc2nnc(-c3ccco3)o2)cc1 | inconclusive [activator, single point] | –
30 | Cc1oc(C(=O)O)cc1COc1ccc2c3c(c(=O)oc2c1C)CCC3 | inconclusive [activator, single point] | –
31 | Nc1nc2ccccc2n1C(=O)CCc1ccccc1 | inconclusive [activator, full curve] | –
32 | S=C(Nc1cccnc1)Nc1cccc2cnccc12 | – | inactive: 10.4%
33 | CCCCOc1ccc(-c2nnc(N)s2)cc1 | inconclusive [activator, single point] | –
34 | Cc1nc2cc(-c3ccc(F)cc3)[nH]n2c(=O)c1C | inconclusive [activator, single point] | –
35 | CCn1c(=O)c2c(nc(SCC(=O)N3CCC(C)CC3)n2C)n(C)c1=O | – | inactive: 5.37%
36 | CCOC(=O)c1ccc(NC(=O)N2CCN(c3cccc(OC)c3)CC2)cc1 | – | inactive: 15.8%
37 | CN1CCSc2ccc(C(=O)NCc3ccccc3F)cc21 | inconclusive [activator, partial curve] | –
38 | O=CN1CCN(C(=O)c2ccccc2Cl)CC1 | inconclusive [activator, single point] | –
39 | CCOc1ccccc1NC(=O)C1CCCN1S(=O)(=O)c1ccccc1C(F)(F)F (stereo unspecified) | – | inactive: 0.0917%
40 | CCCOC(=O)c1ccc(NC(=O)c2cnccn2)cc1 | inconclusive [activator, partial curve] | –
41 | CC(=O)N1CC2(NC(=O)c3ccccc3N2)c2ccccc21 (stereo unspecified) | – | inactive: -2.96%
42 | CCc1ccccc1NC(=O)CN1CCN(C(=O)c2ccc(OCc3cn4ccccc4n3)cc2)CC1 | – | inactive: -1.26%
43 | CCN1CCCC1CNC(=O)c1cc(COc2ccc(C)c(C)c2)on1 (stereo unspecified) | inconclusive [activator, partial curve] | –
44 | CC(=O)Nc1ccc(NC2=Nc3ccccc3N3C2=Nc2c(c(C)nn2-c2ccccc2)C3c2ccccc2)cc1 (stereo unspecified) | – | inactive: -16.8%
45 | O=C(N/N=C/c1ccc(N2CCOCC2)cc1)c1ccccn1 | active: 2.24 µM | –
46 | CCOc1ccc(NC(=O)Nc2ccccc2SC)cc1 | inconclusive [activator, full curve] | –
47 | C/[N+]([O-])=C\CC(=O)c1ccc(-c2ccccc2)cc1 | inconclusive [activator, partial curve] | –
48 | Nc1nonc1-c1noc(N2CCCCC2)n1 | inconclusive [activator, single point] | –
49 | O=C(Cn1cc([N+](=O)[O-])ccc1=O)NCc1ccc(Cl)cc1Cl | inconclusive [activator, partial curve] | –
50 | C#CC(C)(C)NC(=O)c1ccc(-c2ccccc2F)cc1 | inconclusive [activator, partial curve] | –
51 | CCCc1nc2ccccc2c(C(=O)OCC(=O)NCc2ccco2)c1CC | – | inactive: -5.73%
52 | Oc1ccc(/C=N/Nc2nccnc2Cl)cc1 | active: 3.16 µM | –

Row | SMILES | Potency | activation, negative = inhibition
53 | Cc1cc(=O)[nH]c(N/N=C/c2cc(C)n(-c3ccccc3)c2C)n1 | inconclusive [activator, full curve] | –
54 | CC(C(=O)NCc1ccccc1)N1C(=O)CN(C)C(=O)c2ccccc21 (stereo unspecified) | – | inactive: -4.53%
55 | CCOC(=O)c1ccc(NC(=O)C2C3C=CC(C3)C2C(=O)O)cc1 (stereo unspecified) | inconclusive [activator, single point] | –
56 | O=C(CCCc1cccs1)Nc1nc2c(s1)CCCC2 | inconclusive [activator, partial curve] | –
57 | O=Cc1cc(N=Nc2cccc(C(=O)O)c2)ccc1O | inconclusive [activator, full curve] | –
58 | CCOC(=O)c1cccc(NC(=O)c2cc3sccc3n2C)c1 | active: 0.891 µM | –
59 | CCOC(=O)c1sc(-c2ccc(OC)cc2)cc1N | active: 1.26 µM | –
60 | Cc1ccc(-c2noc(C3CCCCC3)n2)cc1 | inconclusive [activator, partial curve] | –
61 | O=C(NNC(=S)Nc1ccc(F)cc1)C1[C@H]2CCCC[C@@H]12 (stereo partly specified) | inconclusive [activator, partial curve] | –
62 | CSc1ccccc1OCc1cc(C(=O)NC2CCOC2)no1 (stereo unspecified) | inconclusive [activator, partial curve] | –
63 | Cc1ccc(C)c(OCCC(=O)NCCc2ccc(S(N)(=O)=O)cc2)c1 | – | inactive: -4.78%
64 | O=C(/C=C/c1ccccc1)c1ccc(NC2=NCCCS2)cc1 | inconclusive [activator, single point] | –
65 | COC(=O)c1ccc2[nH]c(C(C)(C)O)c(C)c2c1 | inconclusive [activator, partial curve] | –
66 | CC(C)[C@H](NS(=O)(=O)c1ccc(Cl)cc1)C(=O)OCC(=O)c1c(N)n(C)c(=O)n(C)c1=O | – | inactive: 1.69%
67 | COc1ccc(-c2cc(C(=O)Nc3ccc(C(N)=O)cc3)c3ccccc3n2)cc1 | inconclusive [activator, single point] | –
68 | COCCN1CCN(C(=O)c2cc(COc3ccc(Cl)cc3OC)on2)CC1 | active: 3.16 µM | –
69 | O=C(NCc1ccccc1Cl)c1ccc2ccccc2n1 | inconclusive [activator, partial curve] | –
70 | O=C(/C=C/c1nc2ccccc2s1)N1CCCCCC1 | active: 2 µM | –
71 | COc1ccc(C(=O)CSc2nccn2C)c(OC)c1 | active: 3.55 µM | –
72 | COCCOC(=O)c1c(C)oc2ccc(OC(=O)c3c(OC)cccc3OC)cc12 | – | inactive: 0.489%
73 | Nc1ccc2oc(CCc3ccccc3)nc2c1 | active: 0.708 µM | –
74 | c1ccc2[nH]c(NCc3ccc4c(c3)OCO4)nc2c1 | inconclusive [activator, partial curve] | –
75 | CCCCN1C(=O)C(O)(CC(=O)c2c(C)coc2C)c2ccccc21 (stereo unspecified) | inconclusive [activator, single point] | –
76 | Cc1ccccc1C(=O)NNC(=O)c1ccc(Br)cc1 | inconclusive [activator, partial curve] | –
